Here are results for 44 sequences from the supplement of paper PMC11417369.

± gives the standard deviation of the averaged measurements. The list shows a part of the results.

The test deals with PfAP2-G AP2 domain (GST-tagged). The test is described as follows: gcPBM binding intensity (ln(normalized median fluorescence intensity)); higher = stronger DNA binding. In short, it runs like this:
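The binding buffer was 1× PBS containing 1% milk, 0.2 mg/ml BSA, 0.5% salmon testes DNA and 0.03% Triton X-100. In it, GST-tagged P. falciparum DNA-binding domains expressed in E. coli were applied for 1 h to an Agilent 4 × 180k array of primer-extended double-stranded 36-bp intergenic genomic probes plus negative controls. Binding intensity, read with Alexa488 anti-GST antibody and a 488 nm scan, is the highest Masliner-normalised natural-log median intensity across replicate spots of either probe orientation.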
Take “AAACTATAATATATTACACACATATATTTTATAAGT [CACACA_site6460]”: the “gcPBM binding intensity (ln)” value stood at 9.93 ± 0.11. As for “TTTTTTCAATTTTTTTTAAATAAACCACAAAAAAAA [CACACA_negctrl_site1701]”, the “gcPBM binding intensity (ln)” value is 10.2 ± 0.41.

Regarding “AACATACATAAACACACACACACACCCACAGAGACA [CACACA_site4430]”, the “gcPBM binding intensity (ln)” value was found to be 10.2 ± 0.23.

For “AAAAAAATAAGTATTGAACAATTAAGGAAAAACATG [GTGCAC_negctrl_site464]”, the “gcPBM binding intensity (ln)” value worked out at 10.285 ± 0.007. The value for “CTTATAAAAAAAAAAACATGCAACAGTAAAGAACAA [TGCATGCA_site892]” was 10.1 ± 0.014.

As for “GGTAATTTTTTTTAAATACACACTGAAATGTGAATT [CACACA_site564]”, the “gcPBM binding intensity (ln)” value stood at 9.965 ± 0.021. The value for “CATACAGATATATATACACACATACAGATAAATACA [CACACA_site4592]” was 10 ± 0.13; that for “ATATATTATATAATATGTACATAATAAAATTTAAAT [XGTACX_site1900]” was 11.2 ± 0.59; that for “TTTTTATTTATATATATATATATATATTATATATAA [CACACA_negctrl_site1654]” was 9.69 ± 0.15. For “ATCTAAATAATATATATATATAATATTAATAATATA [CACACA_negctrl_site1620]”, the “gcPBM binding intensity (ln)” value came to 9.69 ± 0.2.

In the case of “GAGTAAACATATATATGTACATAAAGTTAACATTGC [XGTACX_site2225]”, the “gcPBM binding intensity (ln)” value was determined as 11.1 ± 0.52. The value for “ATTTTTTTTCATATAACACACACACTAATATAATGT [CACACA_site9226]” was 10.4 ± 0.32; that for “TGAACACCCACAAATACACACAAAAAAAATAAATAA [CACACA_site248]” was 10.2 ± 0.28. The value for “CTTGTCATTGGGCACACACACATGTATAGGTTATTA [CACACA_site3058]” was 10.7 ± 0.39. With “AATAAATAAATATATACACACATATCTGTCTACATA [CACACA_site5708]”, the “gcPBM binding intensity (ln)” value worked out at 9.74 ± 0.15.

On to “ACAAGATCTAGATACACACACATATCTCTCAATCTA [CACACA_site6453]”, for which the “gcPBM binding intensity (ln)” value amounted to 10.04 ± 0.092.

Regarding “AATAATTGAAAAACACAAAAATGATTTTCCATAAAT [CACACA_negctrl_site1555]”, the “gcPBM binding intensity (ln)” value came to 9.56 ± 0.13. Turning to “GTAAAAAAATAGCACACACACAAAAACACGCACAAA [CACACA_site6723]”, the “gcPBM binding intensity (ln)” value stood at 10.7 ± 0.53. The value for “GGGACAGGACGAAAAAATAAATAAATAAATAAAAAA [CACACA_negctrl_site155]” was 10.1 ± 0.37; that for “AGGAAAAACTTGAATGCATGCGCACATTCTAGTTTG [TGCATGCA_site776]” was 9.9 ± 0.11; that for “TATTATTACGTAATATGTACATATATTTATACCACT [XGTACX_site5918]” was 11.2 ± 0.52. The value for “AAAAATATATATAACACACACATAATATATATATAT [CACACA_site2537]” was 10.1 ± 0.45; that for “TTATAACACATTACATGTACAAATATAAATATATTC [XGTACX_site6503]” was 10.7 ± 0.48.

“TTTTTTTTTGTTTACACACACAAAATATTATATGTA [CACACA_site2470]”: the “gcPBM binding intensity (ln)” value stood at 9.95 ± 0.042. As to “AAAAAAAAAAAAAAATGTACAAAAATTACTATAAAA [XGTACX_site7683]”, the “gcPBM binding intensity (ln)” value stood at 10.8 ± 0.54. “TATTTTTTTTTTATATGTACATAATTTCAAATAAAT [XGTACX_site7747]”: the “gcPBM binding intensity (ln)” value turned out to be 11.4 ± 0.83. The value for “AAGGATATAACATACACACACACACCGATATATATA [CACACA_site6136]” was 9.94 ± 0.14. As to “AAAATTATATATTATTGTACATAAAATTTTGACATA [XGTACX_site4886]”, the “gcPBM binding intensity (ln)” value amounted to 11 ± 0.59. The value for “ATAACGATATATGTGCGTACTTATAGAATAAGCAAA [XGTACX_site6743]” was 11.3 ± 0.98; that for ATATATCATATTATAGTGCATTTATAATAATATTAT was 9.93 ± 0.16. For “TATTATCTGTAGTGTACACATATTATATAGTACTTT [CACACA_site4582]”, the “gcPBM binding intensity (ln)” value came out at 11.8 ± 1.

“CAATAGTTCTTATGGGTGCAAACCACATATATATAA [GTGCAC_site9606]”: the “gcPBM binding intensity (ln)” value was 10.4 ± 0.23. Regarding “ATAAATACTAGGCACACACACATATATATATATATA [CACACA_site2080]”, the “gcPBM binding intensity (ln)” value is 10.4 ± 0.49. For “ATATATATATATATATGTACATATATGTATACCTTA [XGTACX_site6791]”, the “gcPBM binding intensity (ln)” value was 11.2 ± 0.78.

For TATATATATATATAAGTGCATATAAAAATCGTTCGT, the “gcPBM binding intensity (ln)” value worked out at 10.2 ± 0.26. Take “ATATATATATAATAAACACACACATATACATATATG [CACACA_site9145]”: the “gcPBM binding intensity (ln)” value came to 10.18 ± 0.099. Take “ATTTTTTTTTTTTTTTTTTTTTTTTGGAGAAAGAGA [CACACA_negctrl_site1119]”: the “gcPBM binding intensity (ln)” value was determined as 9.77 ± 0.21.

Turning to “TTTATATACACACAGAAGAACAGAAATATTATATAT [TGCATGCA_negctrl_site483]”, the “gcPBM binding intensity (ln)” value is 10.035 ± 0.007. The value for “AATATAAATAAAAACACACACACACCCATATATATA [CACACA_site2267]” was 10.1 ± 0.32; that for “TTTATTTATCTGTATACACACTTTAATGAAAAGTTG [CACACA_site5400]” was 10.6 ± 0.3. As to “ACAAATCTAAGATAGTGTACATTTATATATATATAT [XGTACX_site8740]”, the “gcPBM binding intensity (ln)” value came to 11.1 ± 0.55. As to “TAAATGGGTGTTAATGCACACGATATGTCTATATAT [CACACA_site5321]”, the “gcPBM binding intensity (ln)” value worked out at 9.955 ± 0.064. The value for “TCTACATATTAATTATGTACGAATTATTATTAGTAA [XGTACX_site6924]” was 11 ± 0.74; that for “TATTTATTTTTCTGTTGTACTTTTCAACATGTTACA [XGTACX_site7457]” was 11.3 ± 0.73.
